In publication PMC3936774 (Nucleic Acids Research, 2013):

B1: Escherichia coli Hfq F42W, C-terminally truncated core ([…]) (domain or fragment)
chain: not shown
B2: Escherichia coli Hfq Y25W, C-terminally truncated core ([…]) (domain or fragment)
chain: not shown
B3: Escherichia coli Hfq F11W, C-terminally truncated core ([…]) (domain or fragment)
chain: not shown
B4: Escherichia coli Hfq F39W, C-terminally truncated core ([…]) (domain or fragment)
chain: not shown

Biological target: the molecule itself
Experiment: crystal structure

| Protein | stoichiometry N |
| --- | --- |
| B1 | 6 |
| B2 | 6 |
| B3 | 6 |
| B4 | 6 |
